Measurements: ChEMBL document CHEMBL1201862, “PubChem BioAssay data set” (2004)

Target: Voltage-gated inwardly rectifying potassium channel KCNH2 (Homo sapiens, UniProt Q12809)
Details: Potency; call rule not given here
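Note: confirmatory quantitative high-throughput screen measuring inhibition of hERG channel activity.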

Voltage-gated inwardly rectifying potassium channel KCNH2, sequence (Q12809 whole entry): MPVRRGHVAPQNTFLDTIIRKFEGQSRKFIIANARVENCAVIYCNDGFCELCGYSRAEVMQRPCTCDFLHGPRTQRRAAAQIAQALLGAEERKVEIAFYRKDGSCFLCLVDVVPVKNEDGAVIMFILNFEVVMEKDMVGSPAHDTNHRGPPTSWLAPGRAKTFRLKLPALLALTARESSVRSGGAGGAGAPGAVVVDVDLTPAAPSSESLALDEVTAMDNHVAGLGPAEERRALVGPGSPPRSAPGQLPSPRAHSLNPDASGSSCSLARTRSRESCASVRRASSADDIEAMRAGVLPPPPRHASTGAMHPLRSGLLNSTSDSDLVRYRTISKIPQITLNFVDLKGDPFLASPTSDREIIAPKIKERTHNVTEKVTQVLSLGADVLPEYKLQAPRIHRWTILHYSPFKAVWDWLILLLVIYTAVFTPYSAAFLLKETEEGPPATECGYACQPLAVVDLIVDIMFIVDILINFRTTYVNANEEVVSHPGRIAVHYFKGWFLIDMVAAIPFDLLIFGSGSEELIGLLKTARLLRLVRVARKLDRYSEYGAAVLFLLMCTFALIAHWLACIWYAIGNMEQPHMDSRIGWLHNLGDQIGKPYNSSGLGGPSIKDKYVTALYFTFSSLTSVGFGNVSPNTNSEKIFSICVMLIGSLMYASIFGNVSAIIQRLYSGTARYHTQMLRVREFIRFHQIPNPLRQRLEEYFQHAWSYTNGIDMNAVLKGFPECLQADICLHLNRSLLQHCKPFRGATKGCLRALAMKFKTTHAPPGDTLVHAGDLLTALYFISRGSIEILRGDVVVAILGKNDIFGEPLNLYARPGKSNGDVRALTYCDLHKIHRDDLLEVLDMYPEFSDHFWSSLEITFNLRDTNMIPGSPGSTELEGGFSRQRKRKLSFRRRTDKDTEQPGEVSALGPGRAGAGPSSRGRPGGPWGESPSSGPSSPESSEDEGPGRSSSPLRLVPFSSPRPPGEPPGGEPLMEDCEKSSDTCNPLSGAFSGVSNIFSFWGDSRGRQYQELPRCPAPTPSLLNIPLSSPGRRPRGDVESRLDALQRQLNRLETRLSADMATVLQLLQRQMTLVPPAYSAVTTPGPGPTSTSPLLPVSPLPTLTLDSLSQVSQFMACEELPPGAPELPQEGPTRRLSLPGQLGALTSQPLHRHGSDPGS

Structure (SMILES): CCCCCCCCCCCCCCCC[n+]1ccccc1
- AC50: inconclusive: 20 µM
